Whole data set: some 33,000 sequences, median “E-score (dimensionless, -0.5 to 0.5)” near -0.058, cut for the highest 2% near 0.35. Some of the results follow.
What follows are sequences tested on MvaT (assay: PBM 8-mer E-score (mean of HK and ME arrays) (E-score (dimensionless, -0.5 to 0.5)); higher = stronger relative binding preference; most listed sequences are background and not binding sites).
Procedure, shortened: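 Reported values are rank-based E-scores, taken as the mean of two universal arrays and parsed with a custom script. Each 8-mer score falls between -0.5 and 0.5. The arrays, ME and HK, were double-stranded 60-mers with a constant 25-mer primer region and a variable 35-mer region covering all 8-mers. They were probed, by an earlier protocol, with full-length P. aeruginosa MvaT carrying an N-terminal glutathione S-transferase fusion.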

Sequence	PBM 8-mer E-score
GTGCCACA	-0.196
ATGTTGCA	0.175
AAAGGTCA	-0.0376
TACAATAA	0.328
GGGACGAC	-0.0537
AGCGACGA	-0.0547
TACCATAA	0.271
CCTAACCA	-0.103
AGAGACCG	-0.221
GCCCAATA	-0.00417
ATTGTCAC	0.0554
CCCCGCTA	-0.303
GGTCGTTA	-0.0413
GGGTAGCA	-0.213
TCACCAGA	-0.0169
TACTAGGA	0.0708
CCAATCGG	-0.128
ACCGAGCC	-0.243
AGGACACT	-0.0447
CGTAAAGC	-0.0951
TAATATCA	0.421
AGAAAAGC	0.166

Sequence	PBM 8-mer E-score
GACGAGAA	-0.0626
GGCGCACA	-0.114
CCCGGTAG	-0.268
CTCATCCA	-0.176
TTGGGAAA	0.137
ATCTTACA	0.155
ACTATAAC	0.334
CGAACTAC	0.132
CTGAGAGC	-0.271
AGAGGTCC	-0.328
ACAGTAGC	0.0672
GATTGCAA	0.127
AGATGCGC	-0.148
CGATTCGC	-0.0586
GCCGACGA	-0.338
ACGTAGAC	-0.0989
CCAAGAAG	-0.0842
CCGCATAA	-0.0045
ACTATTCG	0.166
CTGACATA	-0.054
CGGCACTA	-0.0559
AAATCTTA	0.153

Sequence	PBM 8-mer E-score
CTTTCGTC	-0.112
GATCCATC	-0.299
CATTGGGA	-0.109
AATCAATA	0.283
ACCGTTCG	-0.215
CATCAGCA	-0.0304
CGTGGCTA	-0.168
CCCCGGTC	-0.31
ACGAAGAC	-0.0409
CGCTCTGA	-0.167
AACGAACC	-0.0678
TACAGTCA	-0.0268
CCCCTCCG	-0.328
AACCAATA	0.249
AAGTGTTG	0.124
ATCATTAA	0.259
TGAGAGCA	-0.229
ACAGCGAA	0.0419
TGCCCCCA	-0.276
CCAGTTGC	-0.118
AATATATG	0.446
AATTTTCT	0.13

Sequence	PBM 8-mer E-score
AACAGTCT	-0.0682
GATCTAAC	-0.0118
AGTACTCC	-0.0648
CGTCAGCA	-0.0169
ACACGGGC	-0.172
ACACTGAC	-0.0431
ATAAATCC	0.25
CCCGATTC	-0.0947
AACAAAGT	0.2
ATTTGAAC	0.25
CGCCGAGA	-0.123
CCCGCCAC	-0.182
AAAGGGCG	-0.126
TACGCCAA	0.066
CTTCGTCA	-0.292
CGATACAC	-0.0952
GCGTGCTA	0.0243
ATAGATGG	0.0986
CTGCTCTA	-0.0879
CATGTTCC	-0.042
CACCTATG	-0.253
ACCTGTCA	-0.114

Sequence	PBM 8-mer E-score
ACACCTAG	-0.153
CGGCACGA	-0.211
CGGTAGTA	0.0348
CCAGTCTA	-0.13
GCTTGTGA	-0.00155
CAATTATA	0.414
CGCCTTTA	-0.131
AAATCTAC	-0.0273
GCTGCCTA	-0.11
ACGGGTGC	-0.272
AAAATAGT	0.228
ATCTCGTC	-0.0399
CCACTGCG	-0.274
AGCCCAAG	-0.17
CAGTGTTC	0.0998
AAATCTGT	0.174
CCTGATAC	-0.144
GAGCGGCC	-0.203
ACAAGCGA	-0.105
AGGTCCAC	-0.135
GATCTCTA	-0.103
CCTTCGAC	-0.242
